From PMC9911399, “Two distinct binding modes provide the RNA-binding protein RbFox with extraordinary sequence specificity”
Numbering of substitutions follows the chain as printed; changes in the protein carry UniProt numbers. The list shows a part of the results.

T1: RBFOX1 RRM RbFoxmut (Fox-RRM*) (Homo sapiens, UniProt Q9NWB1 109-208, R118D;E147R;N151S;E152T)
T1 sequence: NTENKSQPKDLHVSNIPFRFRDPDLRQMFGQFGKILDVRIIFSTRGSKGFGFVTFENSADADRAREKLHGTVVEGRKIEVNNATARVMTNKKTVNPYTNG

B1: UAAUAAC (DNA:RNA)
RNA: GGGAGACCGGAAUUCAGAUUGUCCUAAUAACUUAAAUCCCGUCGUAGCCACCA
DNA 1: CAATCTGAATTCCGGTCTCCC
DNA 2: TGGTGGCTACGACGGGATT
B2: UUGGCGU (DNA:RNA)
RNA: B1 RNA with A26U, A27G, U28G, A29C, A30G, C31U
DNA 1: CAATCTGAATTCCGGTCTCCC
DNA 2: TGGTGGCTACGACGGGATT
B3: UUCUGCG (DNA:RNA)
RNA: B1 RNA with A26U, A27C, A29G, A30C, C31G
DNA 1: CAATCTGAATTCCGGTCTCCC
DNA 2: TGGTGGCTACGACGGGATT
B4: CCAAUAG (DNA:RNA)
RNA: B1 RNA with U25C, A26C, U28A, A29U, C31G
DNA 1: CAATCTGAATTCCGGTCTCCC
DNA 2: TGGTGGCTACGACGGGATT
B5: GAAAAUA (DNA:RNA)
RNA: B1 RNA with U25G, U28A, A30U, C31A
DNA 1: CAATCTGAATTCCGGTCTCCC
DNA 2: TGGTGGCTACGACGGGATT
B6: GUUGGGA (DNA:RNA)
RNA: GGGAGACCGGAAUUCAGAUUGUCCGUUGGGAUUAAAUCCCGUCGUAGCCACCA
DNA 1: CAATCTGAATTCCGGTCTCCC
DNA 2: TGGTGGCTACGACGGGATT
B7: UCCGCUU (DNA:RNA)
RNA: B6 RNA with G25U, U26C, U27C, G29C, G30U, A31U
DNA 1: CAATCTGAATTCCGGTCTCCC
DNA 2: TGGTGGCTACGACGGGATT
B8: GAGAAAG (DNA:RNA)
RNA: B1 RNA with U25G, A27G, U28A, C31G
DNA 1: CAATCTGAATTCCGGTCTCCC
DNA 2: TGGTGGCTACGACGGGATT
B9: UACGGUG (DNA:RNA)
RNA: B6 RNA with G25U, U26A, U27C, G30U, A31G
DNA 1: CAATCTGAATTCCGGTCTCCC
DNA 2: TGGTGGCTACGACGGGATT

Target: T1, RBFOX1 RRM RbFoxmut (Fox-RRM*)
Assay: EMSA; HiTS-Eq, 1 nM pool, 10 min; buffer printed only for the single-RNA assays: 10 mM Tris pH 7.5, 150 mM NaCl, 3.4 mM EDTA, 0.001% NP-40, 30 C
Conditions: tags: His6 N-terminal (pET28a); label: 5' 32P
In short: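 These values rest on relative association constants, computed from read-count changes of each RNA species versus the control reaction and normalised to the cognate motif. Reads came from free RNA recovered by 8% native PAGE after purified RbFox RRM (wild type or mutant) at increasing concentrations was equilibrated for 10 min in 50 µL with 1 nM of a 5′-radiolabelled pool with 7 randomized nucleotides and DNA-annealed flanks.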

Binder	binding signal
B1	0.06 KA relative to UGCAUGU
B2	0.145 KA relative to UGCAUGU
B3	0.135 KA relative to UGCAUGU
B4	0.135 KA relative to UGCAUGU
B5	0.086 KA relative to UGCAUGU
B6	0.0849 KA relative to UGCAUGU
B7	0.073 KA relative to UGCAUGU
B8	0.105 KA relative to UGCAUGU
B9	0.107 KA relative to UGCAUGU
